These are yes or no findings as the source states them, for the method shown. Binding seen in cells or lysates may run through a third protein. Some entries that bind do so weakly or less than the wild type.
How the values were obtained:
[1] = molecular target: wild-type androgen receptor (AR-WT), ectopically expressed (human) (UniProt P10275); assay: co-IP; reciprocal: 293T cells transfected 16 hr, 20 µM MG132 for 8 hr; coIP with anti-AR, WB (Figure 2B)
[2] = molecular target: Myc-SPOP S119N (human) (UniProt O43791); assay: co-IP; 293T cells transfected with the indicated plasmids 16 hr, 20 µM MG132 for 8 hr; coIP and WB, antibody of the IP not stated (Figures 4B and 5B)
[3] = molecular target: Myc-SPOP F133V (human) (UniProt O43791); assay: as above
[4] = molecular target: Myc-SPOP F125V (human) (UniProt O43791); assay: as above
[5] = molecular target: Myc-SPOP F133L (human) (UniProt O43791); assay: as above
[6] = molecular target: Myc-SPOP Y87N (human) (UniProt O43791); assay: as above
[7] = molecular target: Myc-SPOP Y87C (human) (UniProt O43791); assay: as above
[8] = molecular target: Myc-SPOP F102C (human) (UniProt O43791); assay: as above
[9] = molecular target: Myc-SPOP W131G (human) (UniProt O43791); assay: as above
[10] = molecular target: Myc-SPOP wild type (human) (UniProt O43791); assay: as above
[11] = molecular target: Myc-SPOP wild type (human) (UniProt O43791); assay: co-IP; 293T cells transfected with Myc-SPOP and AR WT or deletion mutants 16 hr, 20 µM MG132 for 8 hr; coIP with Myc antibody, WB (Figure 3B)
[12] = molecular target: HA-SPOP (human) (UniProt O43791); assay: co-IP; 293T cells transfected 16 hr, 20 µM MG132 for 8 hr; coIP with anti-HA, WB (Figure 2A)

By UniProt entry, the sequences of proteins in these tests, tags left out. Where a name states a change or a piece, a line headed by the entry shows the natural chain unless it says otherwise. Chains listed by the source or under a name are the forms on record and can include a tag or linker.
UniProt P10275: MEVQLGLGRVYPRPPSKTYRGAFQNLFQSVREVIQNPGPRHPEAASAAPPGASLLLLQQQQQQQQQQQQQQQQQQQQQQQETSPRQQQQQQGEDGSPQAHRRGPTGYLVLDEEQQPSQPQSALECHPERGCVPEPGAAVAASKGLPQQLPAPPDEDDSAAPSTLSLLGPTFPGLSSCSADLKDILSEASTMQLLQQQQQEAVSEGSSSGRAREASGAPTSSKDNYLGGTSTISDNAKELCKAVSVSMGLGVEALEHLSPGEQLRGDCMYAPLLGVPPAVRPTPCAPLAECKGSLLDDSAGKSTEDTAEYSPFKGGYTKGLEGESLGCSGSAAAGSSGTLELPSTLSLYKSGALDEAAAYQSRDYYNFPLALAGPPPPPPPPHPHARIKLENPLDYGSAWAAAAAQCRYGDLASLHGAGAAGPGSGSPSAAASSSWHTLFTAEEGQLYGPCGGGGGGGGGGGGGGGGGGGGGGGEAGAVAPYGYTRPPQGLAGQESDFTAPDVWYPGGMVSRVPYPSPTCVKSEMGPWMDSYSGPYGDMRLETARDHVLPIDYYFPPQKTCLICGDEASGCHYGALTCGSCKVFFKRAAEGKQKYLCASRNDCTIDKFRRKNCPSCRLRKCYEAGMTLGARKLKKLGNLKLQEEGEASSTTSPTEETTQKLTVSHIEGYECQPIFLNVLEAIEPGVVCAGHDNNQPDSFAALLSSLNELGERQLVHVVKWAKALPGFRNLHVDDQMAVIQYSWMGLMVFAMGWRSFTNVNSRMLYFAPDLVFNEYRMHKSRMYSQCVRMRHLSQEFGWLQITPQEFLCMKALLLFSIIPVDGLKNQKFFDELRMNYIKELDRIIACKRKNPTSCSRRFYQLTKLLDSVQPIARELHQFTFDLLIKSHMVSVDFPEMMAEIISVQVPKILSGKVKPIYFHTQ
AR splicing variant V7, ectopically expressed (P10275-3, form named): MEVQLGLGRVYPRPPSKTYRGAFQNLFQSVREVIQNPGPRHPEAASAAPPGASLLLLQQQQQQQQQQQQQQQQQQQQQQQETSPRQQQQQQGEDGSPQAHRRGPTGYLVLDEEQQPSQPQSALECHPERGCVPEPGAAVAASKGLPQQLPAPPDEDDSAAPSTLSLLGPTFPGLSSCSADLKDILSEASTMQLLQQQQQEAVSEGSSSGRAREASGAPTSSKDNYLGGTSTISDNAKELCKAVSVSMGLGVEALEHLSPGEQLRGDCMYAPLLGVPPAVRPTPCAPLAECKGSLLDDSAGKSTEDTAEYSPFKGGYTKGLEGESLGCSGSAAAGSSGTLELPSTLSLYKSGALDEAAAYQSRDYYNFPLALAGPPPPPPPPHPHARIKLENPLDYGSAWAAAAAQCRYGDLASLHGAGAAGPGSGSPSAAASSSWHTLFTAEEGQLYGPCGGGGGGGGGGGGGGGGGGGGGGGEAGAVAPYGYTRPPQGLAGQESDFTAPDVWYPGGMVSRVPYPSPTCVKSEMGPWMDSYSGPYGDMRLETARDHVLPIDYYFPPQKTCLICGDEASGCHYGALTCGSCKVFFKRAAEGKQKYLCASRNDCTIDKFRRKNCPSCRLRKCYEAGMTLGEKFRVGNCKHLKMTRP
UniProt O43791: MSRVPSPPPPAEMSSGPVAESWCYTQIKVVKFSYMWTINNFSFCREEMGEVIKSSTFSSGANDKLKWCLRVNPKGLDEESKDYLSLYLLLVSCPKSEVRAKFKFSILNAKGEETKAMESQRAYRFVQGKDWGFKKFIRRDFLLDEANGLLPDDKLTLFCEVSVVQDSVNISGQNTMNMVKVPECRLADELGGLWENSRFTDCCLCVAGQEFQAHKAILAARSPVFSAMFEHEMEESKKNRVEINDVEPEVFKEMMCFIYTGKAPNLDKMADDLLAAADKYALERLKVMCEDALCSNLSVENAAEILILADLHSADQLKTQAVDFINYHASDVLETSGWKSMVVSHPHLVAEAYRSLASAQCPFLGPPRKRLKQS

Substance | binding [1] | binding [2] | binding [3] | binding [4] | binding [5] | binding [6] | binding [7] | binding [8] | binding [9] | binding [10] | binding [11] | binding [12]
HA-SPOP (from UniProt O43791 1-374) | binds |  |  |  |  |  |  |  |  |  |  | 
wild-type androgen receptor (AR-WT), ectopically expressed (from UniProt P10275 1-920) |  | no binding | no binding | no binding | no binding | no binding | no binding | no binding | no binding | binds | binds | binds
AR splicing variant V7, ectopically expressed (from UniProt P10275-3 1-644) |  |  |  |  |  |  |  |  |  | no binding |  | 

— article PMC4361392
